{
  "source": "the supplement of paper PMC8728848",
  "test_in_all_cases": "glycan array binding signal (z-score within array); higher = stronger binding",
  "conditions_in_all_cases": "glycan notation: IUPAC condensed, linker removed",
  "key": {"[1]": {"test_system": "Fuc(a1-2)Gal(b1-3)GalNAc(b1-4)[Neu5Ac(a2-3)]Gal(b1-4)Glc"}, "[2]": {"test_system": "Fuc(a1-2)Gal(b1-4)GlcNAc6S"}, "[3]": {"test_system": "Fuc(a1-2)Gal(b1-4)[Fuc(a1-3)]GlcNAc"}, "[4]": {"test_system": "Gal(a1-2)Gal"}, "[5]": {"test_system": "Gal(a1-3)GlcNAc"}, "[6]": {"test_system": "Gal(b1-3)Gal"}, "[7]": {"test_system": "Gal(b1-4)GlcNAc(b1-6)[Gal(b1-3)]GalNAc"}, "[8]": {"test_system": "Gal3S(b1-4)Glc6S"}, "[9]": {"test_system": "Gal3S(b1-4)GlcNAc6S"}, "[10]": {"test_system": "Gal3S6S(b1-4)GlcNAc6S"}, "[11]": {"test_system": "Gal6S(b1-4)Glc6S"}, "[12]": {"test_system": "GalNAc(a1-3)Gal"}, "[13]": {"test_system": "GlcNAc(b1-3)Gal(b1-4)GlcNAc(b1-3)Gal(b1-4)GlcNAc"}, "[14]": {"test_system": "GlcNAc(b1-3)[GlcNAc(b1-6)]GlcNAc"}, "[15]": {"test_system": "GlcNAc(b1-4)GlcNAc(b1-4)GlcNAc(b1-4)GlcNAc(b1-4)GlcNAc(b1-4)GlcNAc"}, "[16]": {"test_system": "GlcNAc(b1-4)GlcNAc(b1-4)GlcNAc(b1-4)GlcNAc(b1-4)GlcNAc"}, "[17]": {"test_system": "Man(a1-2)Man(a1-3)[Man(a1-2)Man(a1-6)]Man"}, "[18]": {"test_system": "Man(a1-2)Man(a1-3)[Man(a1-3)[Man(a1-6)]Man(a1-6)]Man(b1-4)GlcNAc(b1-4)GlcNAc"}, "[19]": {"test_system": "Neu5Ac(a2-3)Gal(b1-3)GalNAc(b1-3)Gal(a1-4)Gal(b1-4)Glc"}, "[20]": {"test_system": "Neu5Ac(a2-3)Gal(b1-3)GlcNAc"}, "[21]": {"test_system": "Neu5Ac(a2-3)Gal(b1-3)[Fuc(a1-4)]GlcNAc"}, "[22]": {"test_system": "Neu5Ac(a2-3)Gal(b1-4)GlcNAc(b1-3)Gal(b1-4)GlcNAc(b1-3)Gal(b1-4)GlcNAc"}, "[23]": {"test_system": "Neu5Ac(a2-3)Gal(b1-4)GlcNAc6S"}, "[24]": {"test_system": "Neu5Ac(a2-3)GalNAc(b1-4)GlcNAc"}, "[25]": {"test_system": "Neu5Ac(a2-6)GalNAc"}},
  "note": "The sample as a whole holds a higher share of the strongest signals than the screen did.",
  "data": [
    {"substance": "PTX3 (chain not printed)", "values": [
      {"measurement": "glycan array binding signal (z-score)", "setting": "[1]", "result": 0.025},
      {"measurement": "glycan array binding signal (z-score)", "setting": "[2]", "result": -0.045},
      {"measurement": "glycan array binding signal (z-score)", "setting": "[3]", "result": -0.268},
      {"measurement": "glycan array binding signal (z-score)", "setting": "[4]", "result": 0.028},
      {"measurement": "glycan array binding signal (z-score)", "setting": "[5]", "result": -0.324},
      {"measurement": "glycan array binding signal (z-score)", "setting": "[6]", "result": 0.109},
      {"measurement": "glycan array binding signal (z-score)", "setting": "[7]", "result": -0.372},
      {"measurement": "glycan array binding signal (z-score)", "setting": "[8]", "result": 1.97},
      {"measurement": "glycan array binding signal (z-score)", "setting": "[9]", "result": 1.98},
      {"measurement": "glycan array binding signal (z-score)", "setting": "[10]", "result": 5.66},
      {"measurement": "glycan array binding signal (z-score)", "setting": "[11]", "result": 2.46},
      {"measurement": "glycan array binding signal (z-score)", "setting": "[12]", "result": -0.44},
      {"measurement": "glycan array binding signal (z-score)", "setting": "[13]", "result": -0.2},
      {"measurement": "glycan array binding signal (z-score)", "setting": "[14]", "result": -0.352},
      {"measurement": "glycan array binding signal (z-score)", "setting": "[15]", "result": -0.372},
      {"measurement": "glycan array binding signal (z-score)", "setting": "[16]", "result": 0.149},
      {"measurement": "glycan array binding signal (z-score)", "setting": "[17]", "result": -0.5},
      {"measurement": "glycan array binding signal (z-score)", "setting": "[18]", "result": -0.402},
      {"measurement": "glycan array binding signal (z-score)", "setting": "[19]", "result": -0.343},
      {"measurement": "glycan array binding signal (z-score)", "setting": "[20]", "result": -0.301},
      {"measurement": "glycan array binding signal (z-score)", "setting": "[21]", "result": -0.51},
      {"measurement": "glycan array binding signal (z-score)", "setting": "[22]", "result": 0.058},
      {"measurement": "glycan array binding signal (z-score)", "setting": "[23]", "result": 3.79},
      {"measurement": "glycan array binding signal (z-score)", "setting": "[24]", "result": -0.208},
      {"measurement": "glycan array binding signal (z-score)", "setting": "[25]", "result": -0.544}
    ]}
  ]
}
